In PMC9911399, “Two distinct binding modes provide the RNA-binding protein RbFox with extraordinary sequence specificity”:
Substitutions are numbered along the chain they refer to; changes in the protein carry UniProt numbers. The list shows a part of the results.

T1: RBFOX1 RRM (Homo sapiens, UniProt Q9NWB1 109-208)
T1 sequence: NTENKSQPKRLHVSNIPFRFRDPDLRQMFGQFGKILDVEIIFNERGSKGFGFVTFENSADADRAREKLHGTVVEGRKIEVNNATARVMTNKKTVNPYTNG

B1: GACCAUG (DNA:RNA)
RNA: GGGAGACCGGAAUUCAGAUUGUCCGACCAUGUUAAAUCCCGUCGUAGCCACCA
DNA 1: CAATCTGAATTCCGGTCTCCC
DNA 2: TGGTGGCTACGACGGGATT
B2: AAGAGGG (DNA:RNA)
RNA: B1 RNA with G25A, C27G, C28A, A29G, U30G
DNA 1: CAATCTGAATTCCGGTCTCCC
DNA 2: TGGTGGCTACGACGGGATT
B3: GACAGUA (DNA:RNA)
RNA: B1 RNA with C28A, A29G, G31A
DNA 1: CAATCTGAATTCCGGTCTCCC
DNA 2: TGGTGGCTACGACGGGATT
B4: CACGAAG (DNA:RNA)
RNA: B1 RNA with G25C, C28G, U30A
DNA 1: CAATCTGAATTCCGGTCTCCC
DNA 2: TGGTGGCTACGACGGGATT
B5: UUUCUCG (DNA:RNA)
RNA: B1 RNA with G25U, A26U, C27U, A29U, U30C
DNA 1: CAATCTGAATTCCGGTCTCCC
DNA 2: TGGTGGCTACGACGGGATT
B6: CUAAUAU (DNA:RNA)
RNA: GGGAGACCGGAAUUCAGAUUGUCCCUAAUAUUUAAAUCCCGUCGUAGCCACCA
DNA 1: CAATCTGAATTCCGGTCTCCC
DNA 2: TGGTGGCTACGACGGGATT
B7: GGAGCGG (DNA:RNA)
RNA: B1 RNA with A26G, C27A, C28G, A29C, U30G
DNA 1: CAATCTGAATTCCGGTCTCCC
DNA 2: TGGTGGCTACGACGGGATT
B8: UUUCAGA (DNA:RNA)
RNA: B1 RNA with G25U, A26U, C27U, U30G, G31A
DNA 1: CAATCTGAATTCCGGTCTCCC
DNA 2: TGGTGGCTACGACGGGATT
B9: UCAUUAU (DNA:RNA)
RNA: B6 RNA with C25U, U26C, A28U
DNA 1: CAATCTGAATTCCGGTCTCCC
DNA 2: TGGTGGCTACGACGGGATT
B10: UCAAGAG (DNA:RNA)
RNA: B6 RNA with C25U, U26C, U29G, U31G
DNA 1: CAATCTGAATTCCGGTCTCCC
DNA 2: TGGTGGCTACGACGGGATT
B11: UGGCGGA (DNA:RNA)
RNA: B1 RNA with G25U, A26G, C27G, A29G, U30G, G31A
DNA 1: CAATCTGAATTCCGGTCTCCC
DNA 2: TGGTGGCTACGACGGGATT
B12: GCAAAUG (DNA:RNA)
RNA: B1 RNA with A26C, C27A, C28A
DNA 1: CAATCTGAATTCCGGTCTCCC
DNA 2: TGGTGGCTACGACGGGATT
B13: ACGAAAU (DNA:RNA)
RNA: B6 RNA with C25A, U26C, A27G, U29A
DNA 1: CAATCTGAATTCCGGTCTCCC
DNA 2: TGGTGGCTACGACGGGATT
B14: AUGGUGG (DNA:RNA)
RNA: B6 RNA with C25A, A27G, A28G, A30G, U31G
DNA 1: CAATCTGAATTCCGGTCTCCC
DNA 2: TGGTGGCTACGACGGGATT
B15: GUCUGCG (DNA:RNA)
RNA: B1 RNA with A26U, C28U, A29G, U30C
DNA 1: CAATCTGAATTCCGGTCTCCC
DNA 2: TGGTGGCTACGACGGGATT
B16: AGGCCCA (DNA:RNA)
RNA: B1 RNA with G25A, A26G, C27G, A29C, U30C, G31A
DNA 1: CAATCTGAATTCCGGTCTCCC
DNA 2: TGGTGGCTACGACGGGATT
B17: GGCAGGU (DNA:RNA)
RNA: B6 RNA with C25G, U26G, A27C, U29G, A30G
DNA 1: CAATCTGAATTCCGGTCTCCC
DNA 2: TGGTGGCTACGACGGGATT
B18: UUUUCAC (DNA:RNA)
RNA: B6 RNA with C25U, A27U, A28U, U29C, U31C
DNA 1: CAATCTGAATTCCGGTCTCCC
DNA 2: TGGTGGCTACGACGGGATT
B19: UGGGCUA (DNA:RNA)
RNA: B1 RNA with G25U, A26G, C27G, C28G, A29C, G31A
DNA 1: CAATCTGAATTCCGGTCTCCC
DNA 2: TGGTGGCTACGACGGGATT
B20: GGGUAGA (DNA:RNA)
RNA: B1 RNA with A26G, C27G, C28U, U30G, G31A
DNA 1: CAATCTGAATTCCGGTCTCCC
DNA 2: TGGTGGCTACGACGGGATT
B21: CAGCUGU (DNA:RNA)
RNA: B6 RNA with U26A, A27G, A28C, A30G
DNA 1: CAATCTGAATTCCGGTCTCCC
DNA 2: TGGTGGCTACGACGGGATT
B22: GACAGGG (DNA:RNA)
RNA: B1 RNA with C28A, A29G, U30G
DNA 1: CAATCTGAATTCCGGTCTCCC
DNA 2: TGGTGGCTACGACGGGATT
B23: UAUAUUU (DNA:RNA)
RNA: B6 RNA with C25U, U26A, A27U, A30U
DNA 1: CAATCTGAATTCCGGTCTCCC
DNA 2: TGGTGGCTACGACGGGATT
B24: CUUGACC (DNA:RNA)
RNA: B6 RNA with A27U, A28G, U29A, A30C, U31C
DNA 1: CAATCTGAATTCCGGTCTCCC
DNA 2: TGGTGGCTACGACGGGATT
B25: CAUCAAA (DNA:RNA)
RNA: B1 RNA with G25C, C27U, U30A, G31A
DNA 1: CAATCTGAATTCCGGTCTCCC
DNA 2: TGGTGGCTACGACGGGATT
B26: CCUCGCG (DNA:RNA)
RNA: B1 RNA with G25C, A26C, C27U, A29G, U30C
DNA 1: CAATCTGAATTCCGGTCTCCC
DNA 2: TGGTGGCTACGACGGGATT
B27: UGGUCUC (DNA:RNA)
RNA: B1 RNA with G25U, A26G, C27G, C28U, A29C, G31C
DNA 1: CAATCTGAATTCCGGTCTCCC
DNA 2: TGGTGGCTACGACGGGATT
B28: UGACGCA (DNA:RNA)
RNA: B6 RNA with C25U, U26G, A28C, U29G, A30C, U31A
DNA 1: CAATCTGAATTCCGGTCTCCC
DNA 2: TGGTGGCTACGACGGGATT
B29: GUGGUAU (DNA:RNA)
RNA: B6 RNA with C25G, A27G, A28G
DNA 1: CAATCTGAATTCCGGTCTCCC
DNA 2: TGGTGGCTACGACGGGATT
B30: UGUUCCU (DNA:RNA)
RNA: B6 RNA with C25U, U26G, A27U, A28U, U29C, A30C
DNA 1: CAATCTGAATTCCGGTCTCCC
DNA 2: TGGTGGCTACGACGGGATT
B31: CCUUAAG (DNA:RNA)
RNA: B6 RNA with U26C, A27U, A28U, U29A, U31G
DNA 1: CAATCTGAATTCCGGTCTCCC
DNA 2: TGGTGGCTACGACGGGATT

biological target: T1, RBFOX1 RRM; test: EMSA; HiTS-Eq, 1 nM pool, 10 min; buffer printed only for the single-RNA assays: 10 mM Tris pH 7.5, 150 mM NaCl, 3.4 mM EDTA, 0.001% NP-40, 30 C; settings: tags: His6 N-terminal (pET28a); label: 5' 32P
Outline: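 Purified RbFox RRM, wild type or mutant, was incubated for 10 min in 50 µL with 1 nM of a 5′-radiolabelled RNA pool carrying 7 randomized nucleotides, whose flanks were annealed to DNA oligonucleotides, over a series of increasing protein concentrations. Unbound RNA was resolved on 8% native PAGE, cut out, reverse-transcribed, barcoded by PCR and sequenced on an Illumina HiSeq 2500. Relative association constants were derived from changes in read counts for each RNA species versus the control reaction and normalised to the cognate motif.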

Point of comparison: B12, binding signal 0.00715 KA relative to UGCAUGU. Against it:
- B1 — higher, 0.0127 KA relative to UGCAUGU
- B2 — lower, 0.005 KA relative to UGCAUGU
- B3 — higher, 0.0098 KA relative to UGCAUGU
- B4 — lower, 0.00654 KA relative to UGCAUGU
- B5 — higher, 0.0134 KA relative to UGCAUGU
- B6 — lower, 0.00179 KA relative to UGCAUGU
- B7 — higher, 0.0125 KA relative to UGCAUGU
- B8 — higher, 0.0123 KA relative to UGCAUGU
- B9 — lower, 0.00269 KA relative to UGCAUGU
- B10 — higher, 0.00877 KA relative to UGCAUGU
- B11 — higher, 0.0166 KA relative to UGCAUGU
- B13 — lower, 0.0032 KA relative to UGCAUGU
- B14 — higher, 0.0151 KA relative to UGCAUGU
- B15 — higher, 0.0225 KA relative to UGCAUGU
- B16 — lower, 0.00176 KA relative to UGCAUGU
- B17 — lower, 0.007 KA relative to UGCAUGU
- B18 — higher, 0.00776 KA relative to UGCAUGU
- B19 — higher, 0.0261 KA relative to UGCAUGU
- B20 — higher, 0.0155 KA relative to UGCAUGU
- B21 — higher, 0.00977 KA relative to UGCAUGU
- B22 — higher, 0.0115 KA relative to UGCAUGU
- B23 — lower, 0.00235 KA relative to UGCAUGU
- B24 — lower, 0.0059 KA relative to UGCAUGU
- B25 — lower, 0.00054 KA relative to UGCAUGU
- B26 — higher, 0.00752 KA relative to UGCAUGU
- B27 — higher, 0.0219 KA relative to UGCAUGU
- B28 — higher, 0.0206 KA relative to UGCAUGU
- B29 — higher, 0.0119 KA relative to UGCAUGU
- B30 — higher, 0.0154 KA relative to UGCAUGU
- B31 — higher, 0.00771 KA relative to UGCAUGU
